In PubChem BioAssay AID1963576 (National Center for Advancing Translational Sciences (NCATS), 2024):
In all, about 46,000 compounds went through this assay and about 60 (0.1%) were called active. About 3% were inconclusive and are not listed. Calls come from the whole dose curve; as a rule, active = well fitted inhibition curve with a large enough effect; inconclusive = small, poorly fitted or top-dose-only effect; inactive = no such curve, though single readings can be large or run the other way. The list shows a part of the results.

experiment: Primary qHTS assay for Inhibitors of ovarian cancer metastasis using an organotypic tumor microenvironment (TME) model.; note: nearly all actives have a fitted effect of over 65% in size;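 for activity change, negative = inhibition: plate controls were DMSO wells for no effect and tomatine positive control wells for full effect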; details: SKOV3ip1-GFP adhesion/invasion on 3D omental model, fluorescence; series mostly up to 45.8 µM; activity change, negative = inhibition: at the top concentration
Outline: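 A 3D layer of primary human omental fibroblasts, mesothelial cells, fibronectin and collagen I, grown 48 hr, received SKOV3ip1-GFP cells in serum-free medium plus compounds at 0.36-46 umol/L. After 2 hr RT and 16 hr 37 C, fixed adherent GFP cells were counted; normalized to DMSO and tomatine.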

Activity change, negative = inhibition, inactive:
CCN(CC)CCCNC(=O)CSc1nc2nc(C)c(Cc3c(F)cccc3Cl)c(C)n2n1 -8.4%, Cc1ccc(N(Cc2cc3ccccc3[nH]c2=O)C(=O)c2cccc(Cl)c2)cc1 0.398%, CCc1ccc(-n2nc(CO)c(C(=O)NCC(c3ccccc3)c3ccccc3)n2)cc1 -5.72%, Cc1ccc(CSc2nnc(-n3c(=O)c(C#N)cc4c(=O)n5cc(C)ccc5nc43)s2)cc1 0.319%, COc1ccc(-c2noc(CSc3nc(C)cc(=O)[nH]3)n2)cc1OC -14.8%, CC1=C(C(N)=O)C(c2cccc(C)c2)n2nc(-c3cccc(C)c3)nc2N1 (centres undefined) -1.97%, Cc1ccc(C)c(NC(=O)Cn2c(=O)n(Cc3ccc4c(c3)OCO4)c(=O)c3oc4ccccc4c32)c1 2.42%, CCCc1nc2c(C)cc(-c3nc4ccccc4n3C)cc2n1Cc1ccc(-c2ccccc2C(=O)O)cc1 4.33%, CC(C)c1ccc2occ(CC(=O)Nc3ccccc3Cl)c2c1 -14.1%, CC(C)NC(=O)C(c1ccccc1)N1Cc2ccccc2C1=O (centres undefined) 15.3%, COc1ccc(Cn2ccc3nc(C)c(C(=O)N4CCN(c5ccccc5OC)CC4)cc3c2=O)cc1 -2.22%, OCCC#Cc1nc(-c2ccc(F)cc2)c(-c2ccncc2)n1CCCc1ccccc1 -9.78%, CCOC(=O)C1CCN(S(=O)(=O)c2ccc(N3CCCCS3(=O)=O)cc2)CC1 1.03%, CCCn1c(=O)c2sccc2n2c(CCCC(=O)Nc3ccc(Oc4ccccc4)cc3)nnc12 4.79%, COCCCOc1cc(C[C@@H](C[C@H](N)[C@@H](O)C[C@H](C(=O)NCC(C)(C)C(N)=O)C(C)C)C(C)C)ccc1OC 6.62%, Cc1ccc(CNC(=O)c2cc(-c3ccc(C)cc3)nc3n[nH]c(-c4ccc(F)cc4)c23)cc1 1.93%, CC(C)C1N=C2c3ccccc3N=C(SCC(=O)NCc3ccccc3Cl)N2C1=O (centres undefined) -4.57%, CCn1c(SCc2ccc(F)cc2Cl)nc(=O)c2c(C(=O)OC)cc(C3CC3)nc21 -12.6%, CC(=O)Nc1ccc(S(=O)(=O)NCc2cccn2Cc2cccc(C)c2)cc1 -3.27%, CCOc1ccc(CN2C(=O)c3ccccc3Sc3ccc(C(=O)OC)cc32)cc1 -9.16%, COc1ccc(N2CC(NC(=O)c3ccco3)CC2=O)cc1OC (centres undefined) 8.42%, O=C(c1ccc2c(c1)CCN2S(=O)(=O)c1ccc(Cl)cc1)N1CCN(c2ccccc2)CC1 2.72%, COc1ccc(OC)c(CNC(=O)c2c(C)oc3ncn(C)c(=O)c23)c1 -1.13%, COc1ccc(CNc2oc(/C=C/c3cccc(OC)c3)nc2C#N)cc1 -18.8%, O=C(NCc1ccc(F)cc1)C1CCN(c2ncnc3c2nc2n3CCCCC2)CC1 -13.9%, COc1ccc(CNC(=O)c2ccc3c(c2)N(Cc2ccccc2C)C(=O)c2ccccc2S3=O)cc1 (centres undefined) -0.38%, CCOCCCNC(=O)c1cn(CC)c2ccc(S(=O)(=O)N3CCc4ccccc4C3)cc2c1=O 0.922%, CCOC(=O)c1[nH]c(C)c(CCC(=O)N2CCN(c3cccc(C)c3C)CC2)c1C -20.8%, Cc1ccc2nc(-c3ccncc3)c(Nc3ccc(C(C)C)cc3)n2c1 -1.66%, CC(=O)c1ccc(NC(c2ccc(F)cc2)c2nnc(-c3ccccc3)o2)cc1 (centres undefined) -8.36%, CC(C)(C)OC(=O)N1CCC(c2c(C(=O)N3CCN(c4ccccn4)CC3)cnn2-c2ccccc2Cl)CC1 -5.2%, CN(Cc1ccccc1)C(=O)c1cccc(NC(=O)c2nsc3ccccc23)c1 -16.9%, COc1cc(C(CC(=O)Nc2cc(C)ccc2C)N2Cc3ccccc3C2=O)cc(OC)c1OC (centres undefined) -4.9%, CCOc1ccc(CC(=O)NCCc2csc(-c3ccc(Cl)cc3)n2)cc1 1.32%, Cc1ccc(CSc2nc(-c3ccc(C(C)(C)C)cc3)nc3cc(=O)[nH]n23)cc1 -28.4%, Cc1ccc(NC(=O)C(=O)NCC(c2cccnc2)N2CCc3ccccc3C2)cc1 (centres undefined) 23.2%, Cc1ccc(F)cc1NC(=O)CCSc1nc(-c2ccco2)cc(C(F)(F)F)n1 -25.2%, CC1CCCN(S(=O)(=O)c2cc(C(=O)NCc3ccccc3Cl)n(C)c2)C1 (centres undefined) 2.91%, CC(C)CCNC(=O)c1nn(C)c2c1CSc1ccccc1-2 -3.68%, COC(=O)c1c(-c2cccs2)csc1NC(=O)c1cc(OC)c(OC)c(OC)c1 3.45%, CCOc1cc2[nH]c(=O)n(CCCC(=O)NCc3ccc(OC)cc3)c(=O)c2cc1OCC -5.52%, COc1ccc(-n2ccn(CC(=O)Nc3ccc(C)c(C)c3)c(=O)c2=O)cc1OC 11.7%, O=S(=O)(Nc1ccc(-c2ccc(N3CCCC3)nn2)cc1)c1ccc(OC(F)(F)F)cc1 3.63%, COc1cccc(C2c3c(-c4ccccc4O)n[nH]c3C(=O)N2Cc2cccnc2)c1 (centres undefined) 5.27%, CCN(C(=O)c1cc2cc(Br)cc(OC)c2oc1=O)c1ccccc1 -11.8%, Cc1ccc(CCNC(=O)c2cccc(Nc3nc4ccccc4nc3-n3nc(C)cc3C)c2)cc1 -0.218%, COc1ccc(S(=O)(=O)NCCc2sc(-c3cccc(C)c3)nc2C)cc1 19.2%, COc1ccc(CCNc2nc3ccccc3c3nc(-c4cccc(C)c4)nn23)cc1OC -9.47%, COc1cc(Br)ccc1C1C(C(=O)Nc2ccc(C)cc2C)=C(C)Nc2nnnn21 (centres undefined) 0.177%, CCc1ccccc1NC(=O)Cn1c(=O)n(-c2ccc(C)c(C)c2)c(=O)c2oc3ccccc3c21 3.41%, CCOc1cc(C(=O)OCc2cc(=O)n3nc(C4CC4)sc3n2)cc(OCC)c1OCC 0.257%, COc1cc(OC)c(NC(=O)NCc2cccn2Cc2ccccc2)cc1Cl 7.3%, Cc1nn(CC(=O)N2CCN(c3cccc(Cl)c3)CC2)c(=O)c2c1sc1ccccc12 12.5%, CCOC(=O)c1ccc(NC(=O)CCc2c(C)nc3c(c(C)nn3C(C)(C)C)c2C)cc1 -2.39%, CCc1ccc(-n2nc(C)c3c(C(=O)N4CCN(c5cccc(Cl)c5)CC4)cc(C)nc32)cc1 -12.4%, CN(C(=O)Cn1ncc2c1-c1ccccc1OC2)c1ccc(Br)cc1 -4.24%, CCCCCn1c(CNC(=O)c2ccc(F)cc2)nc2ccccc21 4.92%, CCCc1ccc(-c2ccc(C(=O)Oc3ccc(Br)cc3)cc2)nc1 -8.15%, CCOc1ccc(NC(=O)Cn2c(=O)c(CNc3ccccc3)cc3cc4c(cc32)OCCO4)cc1 8.88%, Cc1cc(C)cc(-n2ccnc(NCc3ccc(F)cc3)c2=O)c1 -10.5%, COc1ccc(Cl)cc1C(=O)Nc1c2c(nn1-c1ccc(Cl)cc1)CS(=O)(=O)C2 2.99%, COc1ccccc1CNS(=O)(=O)c1ccc(N2CCCCS2(=O)=O)cc1 0.492%, COc1ccc(OC)c(CCNC(=O)C(C)n2c(C)c3cnn(-c4ccccc4)c(=O)c3c2C)c1 (centres undefined) 25.4%, CCOC(=O)c1c(C)[nH]c(C)c1S(=O)(=O)N1CCC(C(=O)NCc2ccc(N(C)C)cc2)CC1 -29.5%, CN(C)C1(CNC(=O)COc2ccc(C(C)(C)C)cc2)CCCCC1 -4.35%, O=C(Nc1ccc2c(c1)OCO2)c1cc(-c2ccc(Cl)cc2)on1 1.88%, CCCCCn1c(-c2cccc(C)c2)nc2ccccc21 -2.06%, Cc1ccc(Cn2c(=O)n(-c3ccc(C)c(C)c3)c(=O)c3c(C)c(C)sc32)cc1 1.47%, COc1ccc(Cl)cc1NC(=O)CSc1nc(=O)[nH]c2c1CCCC2 -0.313%, COc1ccccc1NC(=O)c1oc2ccccc2c1NC(=O)COc1ccccc1OC -4.2%, CCOc1ccc(CNC(=O)C2=Cc3cc(Br)ccc3OC2)cc1OC -5.91%, CCOc1ccc(OCC)c(NC(=O)c2csc3c2CCCC3)c1 -9.47%, COc1cc(NC(=O)N2CCC(CN3CCc4ccccc4C3)CC2)cc(OC)c1 0.973%, COc1ccc(NC(=O)c2cc(C)nc3c2c(C)nn3-c2cccc(Cl)c2C)c(OC)c1 -9.51%, CC(=O)N1c2c(cc(Br)cc2S(=O)(=O)NCc2ccccc2Cl)CC1C (centres undefined) 4.62%, Cc1ccc2oc(-c3ccc(NC(=O)c4cccc(F)c4)c(C)c3)nc2c1 -3.82%, COc1ccccc1C(=O)Nc1c(C(=O)N(C)c2ccccc2)sc2nc(C)cc(C)c12 3.12%

outcome, inactive:
COc1ccc(OCC2c3cc(OC)c(OC)cc3CCN2C(=O)COc2ccc(Cl)cc2Cl)cc1 (centres undefined), CCOCCc1nn2c(=O)cc(COC(=O)CNC(=O)c3ccc(F)cc3)nc2s1, CCc1ccc(Nc2sc(C(=O)c3ccccc3)c(N)c2S(C)(=O)=O)cc1, C=Cc1ccc(Cn2c(C(=O)O)c(CNCc3ccccc3)c3ccc(OC)cc32)cc1, COc1ccc(-c2cn3c(n2)sc2cc(C(=O)Nc4ccc(F)cc4Cl)ccc23)cc1, O=C(NC1CCCCCC1)c1ccc(CS(=O)c2ccc(Br)cc2)o1 (centres undefined), Cc1ccc(NC(=O)CSCc2cnn(-c3ccccc3)c2-n2cccc2)c(Cl)c1, CC(C)CCNC(=O)c1ccc(Cn2c(SCC(N)=O)nc3ccccc3c2=O)cc1, CCS(=O)(=O)c1cccc(C(=O)N2CCN(c3nc4c(C)ccc(Cl)c4s3)CC2)c1, COC(=O)c1ccc(CSc2nc3c([nH]c4ccccc43)c(=O)n2-c2cc(C)cc(C)c2)o1, O=C1COc2cc(S(=O)(=O)CCC(=O)N3CCN(c4ccccc4)CC3)c(Cl)cc2N1, Cc1ccc(S(=O)(=O)NCCc2nnc3ccc(SCC(=O)Nc4ccc(OC(F)(F)F)cc4)nn23)cc1, COc1ccccc1OCC(=O)Nc1c(C(=O)c2ccc(C)cc2)oc2ccccc12, CCOc1ccc(NC(=O)Cn2cc(C(=O)c3ccccc3)c(=O)c3cc4c(cc32)OCO4)cc1, Cc1ccc(-c2nnc(Nc3cccc(O)c3)c3ccccc23)cc1S(=O)(=O)N1CCCCC1, COc1cc(Cl)c(NC(=O)CN(C)S(=O)(=O)c2ccc3c(c2)CCCC(=O)N3)c(OC)c1, Cn1c(SCC(=O)c2ccc(F)cc2)nnc1-c1ccccc1Br
